Each structure is given as a SMILES string. Hit rate of the full screen: of about 310,000 compounds, about 14,000 (4.5%) showed an effect of 50% or more. The effect is printed as a negative number. The list shows a part of the results.
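Also: peak tail current of the secondary pulse compared with the same well before compound.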

In this experiment the target is human ether-à-go-go-related gene (hERG) potassium channel (human, UniProt Q12809). The experiment is described as follows: primary screen, population patch clamp on CHO cells stably expressing hERG.
Chain of human ether-à-go-go-related gene (hERG) potassium channel (Q12809 whole entry, looked up): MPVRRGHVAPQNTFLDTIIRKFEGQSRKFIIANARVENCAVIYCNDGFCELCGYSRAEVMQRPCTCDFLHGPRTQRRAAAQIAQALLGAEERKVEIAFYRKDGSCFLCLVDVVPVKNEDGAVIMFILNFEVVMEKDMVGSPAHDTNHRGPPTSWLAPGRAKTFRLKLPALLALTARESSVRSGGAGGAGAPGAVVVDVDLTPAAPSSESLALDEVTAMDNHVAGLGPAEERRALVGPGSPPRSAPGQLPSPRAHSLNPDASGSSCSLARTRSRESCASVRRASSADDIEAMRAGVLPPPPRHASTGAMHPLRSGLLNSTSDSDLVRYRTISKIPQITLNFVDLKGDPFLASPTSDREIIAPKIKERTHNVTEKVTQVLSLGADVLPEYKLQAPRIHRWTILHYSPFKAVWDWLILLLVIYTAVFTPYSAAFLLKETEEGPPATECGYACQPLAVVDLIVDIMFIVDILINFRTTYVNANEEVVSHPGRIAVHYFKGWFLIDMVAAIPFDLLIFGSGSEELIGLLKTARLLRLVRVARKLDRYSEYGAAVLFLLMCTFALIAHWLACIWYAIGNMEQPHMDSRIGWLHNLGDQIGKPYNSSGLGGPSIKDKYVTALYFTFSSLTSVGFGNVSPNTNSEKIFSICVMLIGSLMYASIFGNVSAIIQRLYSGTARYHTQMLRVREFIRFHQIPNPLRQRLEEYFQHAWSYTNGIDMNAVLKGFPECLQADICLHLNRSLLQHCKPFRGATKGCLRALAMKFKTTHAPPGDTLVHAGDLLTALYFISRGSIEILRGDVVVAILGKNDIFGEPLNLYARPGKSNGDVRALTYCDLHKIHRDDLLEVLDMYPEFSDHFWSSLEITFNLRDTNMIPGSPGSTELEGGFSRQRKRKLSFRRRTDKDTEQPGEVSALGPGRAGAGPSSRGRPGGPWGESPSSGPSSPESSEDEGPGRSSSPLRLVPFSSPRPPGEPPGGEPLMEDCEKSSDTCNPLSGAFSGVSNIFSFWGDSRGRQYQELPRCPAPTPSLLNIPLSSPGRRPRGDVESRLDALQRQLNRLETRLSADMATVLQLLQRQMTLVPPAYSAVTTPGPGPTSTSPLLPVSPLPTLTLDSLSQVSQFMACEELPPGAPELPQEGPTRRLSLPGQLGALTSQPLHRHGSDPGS
Consider `CCOC(=O)c1ccc(NC(=O)c2nc[nH]c2C(=O)N2CCC(C)CC2)cc1`, for which the “hERG current change (%, negative = inhibition) at 10uM” value is given as 2.94%.
Under `CCOC(=O)C(C#N)(Cc1cc(OC)cc(OC)c1)Cc1cc(OC)cc(OC)c1` stands -1.05%.
Consider `COc1ccc(-c2nnn(CC(=O)N(Cc3ccco3)C(C(=O)NCC3CCCO3)c3ccco3)n2)cc1` (stereo not shown), for which the “hERG current change (%, negative = inhibition) at 10uM” value is reported as -10.4%.
Consider `O=C(N/N=C\c1cc([N+](=O)[O-])ccc1N1CCCC1)c1ccccn1`, for which the “hERG current change (%, negative = inhibition) at 10uM” value was -3.3%.
Under `COc1ccccc1N(C)C(=O)c1cc(S(=O)(=O)N2CCCC2)cn1C` stands -3.55%; under `CC(=O)Nc1ccc(S(=O)(=O)NCC2CCCO2)cc1` (stereo not shown), 18.5%.
`Cc1nc(CCNS(=O)(=O)c2cccnc2)cs1`: the “hERG current change (%, negative = inhibition) at 10uM” value is given as 21.6%.
In the case of `CCOc1cc(/C=C/C(=O)c2ccc(O)cc2)ccc1OCC(=O)N(C)C` it was -24.6%; in that of `N#Cc1c2c(c(-n3cnc4ccccc43)n3c1nc1ccccc13)CCC2`, 0.147%; in that of `CCCCSc1nc2c(cc1C#N)CCC2`, -1.7%.
In the case of `Cc1c(NC(=S)SCc2ccccc2)c(=O)n(-c2ccccc2)n1C`, the “hERG current change (%, negative = inhibition) at 10uM” value was determined as 26.4%.
In the case of `O=C(c1ccc(S(=O)(=O)N2CCC(c3nc4ccccc4[nH]3)CC2)cc1)N1CCOCC1` it was -3.35%; in that of `CC(C)OCC1CC(CC(=O)NC(=S)Nc2cccc([N+](=O)[O-])c2)C(=O)O1` (stereo not shown), -36.8%; in that of `COc1cccc(NC(=O)N2CCC(NC(=O)C(Cc3cccc(C)c3)NC(C)=O)CC2)c1` (stereo not shown), -1.84%.
Under `O=[N+]([O-])c1ccc(Cl)c(/C=N/n2c(C3CCCCC3)n[nH]c2=S)c1` stands 2.79%; under `CCC(=O)Oc1c(C(=O)CC)cc2c(C)cc(=O)oc2c1C`, 0.95%; under `Nc1ccccc1-c1nnn(CC(=O)N2CCCc3ccccc32)n1`, 9.62%.
In the case of `CCOCC(=O)N1CCN(Cc2ccc3c(c2)OCO3)CC1` it was 4.23%; in that of `CCOC(=O)C1CCCN(C(=O)C2CCC(CNS(=O)(=O)c3ccc(NC(C)=O)cc3)CC2)C1` (stereo not shown), -5.84%; in that of `O=C(NCc1ccccn1)c1cc(-c2ccccc2Cl)on1`, -13%.
Take `Cc1cc(NC(=O)C(C)SCC(=O)Nc2cc(C(F)(F)F)ccc2N2CCOCC2)no1` (stereo not shown): the “hERG current change (%, negative = inhibition) at 10uM” value is recorded as -40.3%.
In the case of `COc1ccc(NC(=O)CSc2c(C)n[nH]c2C)cc1` it was -7.52%.
In the case of `O=c1ccn(-c2cccc(C(F)(F)F)c2)nc1-c1ccn(-c2ccccc2)n1` it was -14.2%.
As to `CC(C(=O)NC(C)(C)C)N(C(=O)CS(=O)CC(=O)Nc1ccc(F)cc1)C1CCCC1` (stereo not shown), the “hERG current change (%, negative = inhibition) at 10uM” value worked out at 9.18%.
In the case of `COc1ccc([C@H]2/C=C\CN(C(=O)C3CCCC3)[C@@H](C)C(=O)N2Cc2ccc(F)cc2)cc1`, the “hERG current change (%, negative = inhibition) at 10uM” value is on record as -36.6%.
Take `CCCCC(=O)Nc1nnc(-c2ccco2)o1`: the “hERG current change (%, negative = inhibition) at 10uM” value was -0.241%.
For `COc1cc(NC(=O)C2CC(c3c(F)cccc3Cl)=NO2)c(OC)cc1Cl` (stereo not shown), the “hERG current change (%, negative = inhibition) at 10uM” value is -9.58%.
Under `N#CCC(=O)Nc1ccc(C(=O)OCC(=O)Nc2ccccc2-c2ccccc2)cc1` stands 9.2%.
As to `CCNC(=O)N1CCCC(C(=O)c2ccc(OC)c(OC)c2)C1` (stereo not shown), the “hERG current change (%, negative = inhibition) at 10uM” value is reported as 20.8%.
Under `COc1ccc(S(=O)(=O)N2CCC(N3CCN(c4ccccc4)CC3)CC2)cc1` stands -8.52%.
Under `CCOC(=O)CN1CCS(=O)(=O)CC1` stands 13.5%; under `COc1ccc(NC(=O)C2=CC(c3ccco3)=NS(=O)(=O)N2C)cc1OC`, 1.61%.
In the case of `Cc1nn(C(C)C(=O)NCC2CCCO2)c(C)c1[N+](=O)[O-]` (stereo not shown) it was 8.7%.
For the compound `CN(C(=O)CN1C(=O)S/C(=C\c2ccccc2F)C1=O)C1CCS(=O)(=O)C1` (stereo not shown), the “hERG current change (%, negative = inhibition) at 10uM” value was found to be 6.16%.
For the compound `CS(=O)(=O)Nc1ccccc1C(=O)Nc1cccc(Cl)c1`, the “hERG current change (%, negative = inhibition) at 10uM” value is -14.9%.
As for `Nc1ncn(C23CC4CC(CC(C4)C2)C3)n1`, the “hERG current change (%, negative = inhibition) at 10uM” value is -3.31%.
Take `Cc1ccccc1N(CC(=O)NC1CCCC1)C(=O)c1csnn1`: the “hERG current change (%, negative = inhibition) at 10uM” value came to 27.7%.
`O=C(O)/C=C/C(=O)Nc1ccc(C(=O)c2ccccc2)cc1`: the “hERG current change (%, negative = inhibition) at 10uM” value stood at 3.18%.
Under `O=S(=O)(Nc1ccccc1N1CCOCC1)c1ccc(Cl)s1` stands -4.96%.
In the case of `Nc1nc(Cl)cc(N2CCC(c3cc(-c4ccc(Cl)cc4Cl)n[nH]3)CC2)n1` it was 24.3%; in that of `COc1ccc(NC(=O)C2CCOC2=O)cc1` (stereo not shown), 1.57%; in that of `CCN(C(=O)CCS(=O)(=O)c1cc2c(cc1Cl)NC(=O)CO2)c1ccccc1`, -21.8%.
`CC1(C)CC(NC(=O)c2cccc(S(=O)(=O)N(Cc3ccccc3)c3ccccc3)c2)CC(C)(C)N1`: the “hERG current change (%, negative = inhibition) at 10uM” value is on record as -45.3%.

The values above are taken from PMC4336329 (PLoS ONE, 2015).
